Test results from PubChem BioAssay AID720542 (National Center for Advancing Translational Sciences (NCATS), 2013).
Screen size: about 360,000 compounds; about 740 (0.21%) were called active. Inconclusive means that the source gave no clear call. Such entries were picked first, then a sample of the others. Calls come from the whole dose curve; as a rule, active = well fitted inhibition curve with a large enough effect; inconclusive = small, poorly fitted or top-dose-only effect; inactive = no such curve, though single readings can be large or run the other way. No potency is given beside an inconclusive call; the fits are too rough.

These compounds were tested on Plasmodium falciparum AMA1 (3D7) - RON2 peptide interaction (assay: qHTS for Inhibitors of AMA1-RON; Towards Development of Antimalarial Drug Lead: Primary Screen). Conditions: AlphaScreen AMA1-biotinylated RON2 peptide binding; activity change, negative = inhibition: at 58.2 µM (top of the series) unless noted.
Method in brief: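 AMA1 (3D7) with his tag at 25 nM final met compounds first, then biotinylated RON2 peptide at 25 nM; detection used donor plus acceptor beads, 10 µg/mL apiece, read by AlphaScreen after 30 min at room temperature.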
Note: nearly all actives have a fitted effect of over 45% in size.
Potency is the fitted concentration of half-maximal effect; tags give direction and shape of the fitted curve.
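Throughout, for activity change, negative = inhibition: 0% = vehicle wells and -100% = peptide control.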

Structure (SMILES)	activity change, negative = inhibition	Potency
COc1cc(CN(CCc2c(C)[nH]c3ccc(C)cc23)C(=S)NC(C)(C)C)cc(OC)c1OC	inactive: -10.3%	–
CCc1ccc(/C=C2/SC(=S)N(CC(=O)Nc3nc4ccccc4s3)C2=O)cc1	inactive: 104%	–
Cc1cc2c(c(=O)o1)C(c1ccc([N+](=O)[O-])o1)C(C#N)=C(N)O2 (stereo not drawn)	–	inconclusive [inhibitor, full curve, poor fit]
CCOC(=O)CCCCCCCCC(=O)Nc1ccc(-n2[nH]c(=O)cc2C)cc1	–	inconclusive [inhibitor, partial curve]
Cc1ccc(OC(=O)c2cccc(S(=O)(=O)N3CCN(C)CC3)c2)c(Br)c1	–	inconclusive [inhibitor, single point]
COCCCNC(=O)c1ccc(Cn2c(=O)c3ccccc3n(Cc3cc(C)ccc3C)c2=O)cc1	–	inconclusive [inhibitor, full curve]
COc1ccc(NS(=O)(=O)c2ccc(N3CCOCC3)c(NC(=O)C(C)C)c2)cc1	inactive: -4.69%	–
O=C(COc1ccc(Br)cc1)N1CCCCCC1	–	inconclusive [inhibitor, single point]
CC12C=CC(=O)C=C1CCC1C2CCC2(C)C(C(=O)CO)CCC12 (stereo not drawn)	–	inconclusive [inhibitor, single point]
CC/C(=C(\c1ccccc1)c1ccc(OCCN(C)C)cc1)c1ccccc1	–	inconclusive [inhibitor, partial curve]
O=C(Nc1cccc(F)c1)c1ccc(-c2cccnc2)c2ccoc12	inactive: 18.7%	–
CC(=O)NCC1CCCN(Cc2cn(-c3ccccc3)nc2-c2ccc3c(c2)OCO3)C1 (stereo not drawn)	inactive: -18%	–
COc1ccc(N2CCN(C(c3ccccc3OC)c3nnnn3C3CCCC3)CC2)cc1 (stereo not drawn)	–	inconclusive [inhibitor, single point]
CC(=O)Nc1cccc(-c2ccnc3c2CC(C(=O)NCc2ccc(N(C)C)cc2)O3)c1 (stereo not drawn)	–	inconclusive [inhibitor, partial curve]
N#CC(C(=O)c1ccccc1)=C1SCCS1	inactive: -8.34%	–
COCC1CCCCN1C(=O)c1ccc2oc(CCCc3ccccc3)nc2c1 (stereo not drawn)	inactive: -13.3%	–
CC(=O)Nc1ccc(N/C=C/C(=O)c2ccccc2)cc1	inactive: -9.11%	–
COc1cccc(C2C(C(N)=O)=C(C)Nc3nc(-c4cccc(Cl)c4)nn32)c1 (stereo not drawn)	–	inconclusive [inhibitor, partial curve]
OCCNCCOc1ccccc1-c1ccccc1	–	inconclusive [inhibitor, partial curve]
CSc1ccccc1OC1CCN(Cc2ccccc2)CC1	–	inconclusive [inhibitor, single point]
COc1ccccc1CNC(=O)[C@H](C)N1C(=O)N2CCc3c([nH]c4ccccc34)[C@@]2(C)C1=O	inactive: 0%	–
Cc1ccc(-c2nnc(COC(=O)c3cccs3)o2)cc1	inactive: 8.51%	–
COc1ccc(Nc2nc(NCC3CCCO3)c3ccccc3n2)c(OC)c1 (stereo not drawn)	–	inconclusive [inhibitor, partial curve]

Structure (SMILES)	activity change, negative = inhibition	Potency
Cc1ccc(-c2nc(CN(CC3CCC3)CC3CCCO3)c(C)o2)s1 (stereo not drawn)	–	inconclusive [inhibitor, partial curve, poor fit]
COc1cc(/C=C2\SC(=S)N(Nc3ccccc3)C2=O)ccc1O	–	inconclusive [inhibitor, partial curve]
O=C1c2cccc3cccc(c23)C(=O)N1CC1CCN(CC(O)COc2ccc3ccccc3c2)CC1 (stereo not drawn)	–	inconclusive [inhibitor, partial curve]
CC1(C)Cc2ccccc2C(/C(=N\Nc2cccc(Cl)c2)C(N)=O)=N1	–	inconclusive [inhibitor, partial curve]
Cc1ccc(C)c(-n2c(SCC(=O)O)nc3sc4c(c3c2=O)CCCC4)c1	–	inconclusive [inhibitor, single point]
O=C(Nc1ccc(-c2ccc3nncn3n2)cc1)C1CCCC1	inactive: 3.89%	–
CCN(CC)c1ccc(NC(=O)c2cc3c(OC)cccc3[nH]2)cc1	–	inconclusive [inhibitor, partial curve]
CC1=NOC(=O)/C1=C\c1ccc(-c2ccc(Br)cc2)o1	–	inconclusive [inhibitor, single point]
CCc1cc(-c2n[nH]c(=S)n2CC)cs1	inactive: 74.6%	–
CC(C)(C)N(Cc1ccccc1)C(=O)COC(=O)CSc1ccc([N+](=O)[O-])cc1	–	inconclusive [inhibitor, single point]
Cc1cccc(NC(=O)c2c(C)cc(=O)oc2C)n1	–	inconclusive [inhibitor, single point]
Cc1cccc(CN2CCN(Cc3ccco3)CC2)c1	–	inconclusive [inhibitor, partial curve]
N#Cc1cncc(-c2ccc3c(c2)OCCOCCOCCOCCOCCO3)n1	–	inconclusive [inhibitor, partial curve]
Cc1cc(N/N=C/c2ccccc2F)nc(NCc2ccccc2)n1	–	inconclusive [inhibitor, single point]
CCOC(=O)C1CCCCN1C(=O)c1cc2ccc(OC)cc2c2cc(OC)c(OC)cc12 (stereo not drawn)	inactive: 5.48%	–
CC(=O)Nc1cc(-c2ccc(N(C)C)cc2)cn2c(-c3ccc(F)cc3)cnc12	–	inconclusive [inhibitor, partial curve]
COc1cccc(C(=O)N2CCN(Cc3ccccc3C(F)(F)F)CC2)c1	–	inconclusive [inhibitor, partial curve]
COc1cc(SSc2cc(OC)cc([N+](=O)[O-])c2N)c(N)c([N+](=O)[O-])c1	–	inconclusive [inhibitor, full curve]
COc1ccc(N2CC(C(=O)Nc3nc4ccc(S(C)(=O)=O)cc4s3)CC2=O)cc1 (stereo not drawn)	inconclusive: -15.9% [inhibitor]	–
CCOC(=O)c1cc2sccc2n1CC(=O)N1CCCc2ccccc21	inactive: -9.3%	–
Cc1ccc2c(c1)sc[n+]2Cc1ccccc1	–	inconclusive [inhibitor, single point]
CCc1c(-c2ccc(Br)cc2)ncn1Cc1cccc(-c2ccccc2)c1	–	inconclusive [inhibitor, partial curve]
Cc1ccc2c(c1)N(CC(=O)OCC(=O)NCc1ccccc1)C(=O)CO2	–	inconclusive [inhibitor, single point]

Structure (SMILES)	activity change, negative = inhibition	Potency
Nc1ccc2c(c1)Cc1cc(N)c(Br)cc1-2	–	inconclusive [inhibitor, single point]
CCC(c1nnnn1-c1ccc2c(c1)OCCO2)N1CCN(c2ccc(C)cc2)CC1 (stereo not drawn)	–	inconclusive [inhibitor, partial curve]
Cc1ccc2c(C)c(C(=O)N(Cc3ccc(N(C)C)cc3)C3CCS(=O)(=O)C3)oc2c1 (stereo not drawn)	–	active: 17.8 µM
c1ccc(Nc2cccc3c(Nc4ccccc4)cccc23)cc1	–	inconclusive [inhibitor, partial curve]
O=C(CCSc1nnc(-c2ccco2)o1)N1CCOCC1	–	inconclusive [inhibitor, full curve, poor fit]
CCOC(=O)c1ccc(N2C(=O)CC(N3CCC(C(N)=O)(N4CCCCC4)CC3)C2=O)cc1 (stereo not drawn)	inactive: 1.12%	–
COc1ccc(-c2nc(N3CCN(C)CC3)sc2-c2ccc(OC)cc2)cc1	–	inconclusive [inhibitor, single point]
CC(C)(C)c1ccc(/C=C/C(=O)Nc2nncs2)cc1	inactive: -1.4% [at 11.6 µM]	–
N#Cc1nc(COc2cccc(Cl)c2)oc1N1CCCC1	–	inconclusive [inhibitor, single point]
c1ccc2c(C[n+]3csc4ccccc43)cccc2c1	–	inconclusive [inhibitor, single point]
Cc1ccc(CN2CCN(/N=C\c3cccc([N+](=O)[O-])c3)CC2)cc1	–	active: 14.1 µM
COc1cc(OC)c2c(-c3ccccc3)cc(=O)oc2c1C(CCN1CCN(c2ccccc2)CC1)c1ccc(N(C)C)cc1 (stereo not drawn)	–	active: 7.94 µM
C(=C\c1ccccc1)/CN1CCN(C(CCc2ccccc2)c2nnnn2C2CCCCC2)CC1 (stereo not drawn)	–	inconclusive [inhibitor, partial curve]
Cc1nn(-c2ccccc2)c(N)c1Sc1ccccc1[N+](=O)[O-]	–	inconclusive [inhibitor, single point]
Cc1cc(N(CCO)CCO)ccc1N=Nc1cc(F)ccc1F	–	inconclusive [inhibitor, partial curve]
O=C(C1CCCN(Cc2ccccc2Br)C1)N1CCCCC1 (stereo not drawn)	–	inconclusive [inhibitor, single point]
O=[N+]([O-])c1ccc(/C=C/c2ccncc2)cc1	–	inconclusive [inhibitor, partial curve]
CCCS(=O)(=O)NC(=O)C1(C)CCN(C(=O)C2(c3ccc(Cl)cc3)CCCC2)C1 (stereo not drawn)	inactive: -5.15%	–
COc1cc2c(cc1OC)CN(C(=S)Nc1cccc(Cl)c1C)CC2	–	inconclusive [inhibitor, partial curve]
O=C(c1cccc(Cl)c1)N1CCN(CCCc2ccccc2)CC1	–	inconclusive [inhibitor, partial curve]
Cc1cccc(NC(=O)CSc2nc(C3CC3)nc3ccccc23)c1	–	inconclusive [inhibitor, single point]
Cc1ccc(/C=N/n2c(-c3ccccn3)n[nH]c2=S)o1	–	inconclusive [inhibitor, single point]
